The chains are these.
B1: Caulobacter ParB omega fusion; a variant is named by its letters at X, in order, B8GW30 (parent)
chain: MESVVVGEPGMSEGRRGLGRGLSALLGEVDAAPAQAPGEQLGGSREAPIEILQRNPDQPRRTFREEDLEDLSNSIREKGVLQPILVRPSPDTAGEYQIVAGERAWRAAQRAGLKTVPIMVRELDDLAVLEIGIIENVQRADLNVLEEALSYKVLMEKFERTQENIAQTIGKSXSHVANXMRLLXLPDEVQSYLVSGELTAXHARAIAAAADPVALAKQIIEGGLSVRETEALARKAPNLSAGKSKGGRPPRVKDTDTQALESDLSSVLGLDVSIDHRGSTGTLTITYATLEQLDDLCNRLTRGI

Whole data set: some 81,000 sequences, median “one-hybrid fitness for binding NBS DNA” near -0.1, cut for the highest 2% near 0.36. Some of the results follow. Bounds are passed on as bounds.

77 variants from a collection of fitness landscapes (doi:10.1016/j.celrep.2020.107928) can be followed below.

In this assay the parent is B1. Description: one-hybrid fitness for binding NBS DNA (the Noc-binding site; scaled: cognate 1, non-cognate 0); higher = stronger binding. The settings on record: with NBS DNA site. In outline: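 Pre- and post-selection plasmids were Illumina-sequenced, three replicate libraries were pooled, and any variant with under 10 reads was removed. The libraries were Caulobacter ParB with four specificity codons randomised, selected in E. coli USO through a HIS3 reporter whose site is 19 bp from the promoter. Cells grew 48 hours at 37°C on M9 without histidine, with 0.1 mM IPTG and 5 mM 3-AT. Fitness is the log change in variant-to-wild-type read ratio, rescaled against cognate and non-cognate.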
RTAE: the “one-hybrid fitness for binding NBS DNA” value is ≤ 0.2.

On to DCSG, for which the “one-hybrid fitness for binding NBS DNA” value was ≤ 0.2.

In the case of RCEE, the “one-hybrid fitness for binding NBS DNA” value was ≤ 0.2.

In the case of QGMG, the “one-hybrid fitness for binding NBS DNA” value was ≤ 0.2.

As to WGRS, the “one-hybrid fitness for binding NBS DNA” value was ≤ 0.2.

Consider VMPL, for which the “one-hybrid fitness for binding NBS DNA” value is ≤ 0.2.

SSCC: the “one-hybrid fitness for binding NBS DNA” value is ≤ 0.2.

In the case of KDNS, the “one-hybrid fitness for binding NBS DNA” value was ≤ 0.2.

In the case of RSYW, the “one-hybrid fitness for binding NBS DNA” value was ≤ 0.2.

Consider WTSW, for which the “one-hybrid fitness for binding NBS DNA” value is ≤ 0.2.

Turning to NTPT, the “one-hybrid fitness for binding NBS DNA” value is ≤ 0.2.

Regarding TTVE, the “one-hybrid fitness for binding NBS DNA” value was ≤ 0.2.

Consider SHSP, for which the “one-hybrid fitness for binding NBS DNA” value was ≤ 0.2.

On to ICLG, for which the “one-hybrid fitness for binding NBS DNA” value is ≤ 0.2.

For the variant ESNC, the “one-hybrid fitness for binding NBS DNA” value is ≤ 0.2.

As to SYEE, the “one-hybrid fitness for binding NBS DNA” value was ≤ 0.2.

As to DCVR, the “one-hybrid fitness for binding NBS DNA” value is ≤ 0.2.

As to AKEL, the “one-hybrid fitness for binding NBS DNA” value is ≤ 0.2.

For the variant AQWG, the “one-hybrid fitness for binding NBS DNA” value is ≤ 0.2.

LEVD: the “one-hybrid fitness for binding NBS DNA” value is ≤ 0.2.

Consider DYTY, for which the “one-hybrid fitness for binding NBS DNA” value was ≤ 0.2.

For the variant RMQF, the “one-hybrid fitness for binding NBS DNA” value is ≤ 0.2.

As for SDER, the “one-hybrid fitness for binding NBS DNA” value is ≤ 0.2.

Take ILSM: the “one-hybrid fitness for binding NBS DNA” value was ≤ 0.2.

For the variant LAKM, the “one-hybrid fitness for binding NBS DNA” value was ≤ 0.2.

On to TPKS, for which the “one-hybrid fitness for binding NBS DNA” value is ≤ 0.2.

As for PCRK, the “one-hybrid fitness for binding NBS DNA” value is ≤ 0.2.

In the case of TACD, the “one-hybrid fitness for binding NBS DNA” value is ≤ 0.2.

With HWNF, the “one-hybrid fitness for binding NBS DNA” value is ≤ 0.2.

Regarding QACE, the “one-hybrid fitness for binding NBS DNA” value is ≤ 0.2.

Regarding LVMT, the “one-hybrid fitness for binding NBS DNA” value was ≤ 0.2.

SCFG: the “one-hybrid fitness for binding NBS DNA” value is ≤ 0.2.

As for FGQG, the “one-hybrid fitness for binding NBS DNA” value is ≤ 0.2.

For the variant FSKV, the “one-hybrid fitness for binding NBS DNA” value was ≤ 0.2.

As for VAEV, the “one-hybrid fitness for binding NBS DNA” value is ≤ 0.2.

On to DECT, for which the “one-hybrid fitness for binding NBS DNA” value is ≤ 0.2.

As for RAEF, the “one-hybrid fitness for binding NBS DNA” value was ≤ 0.2.

As to HGRC, the “one-hybrid fitness for binding NBS DNA” value is ≤ 0.2.

In the case of KRRF, the “one-hybrid fitness for binding NBS DNA” value was ≤ 0.2.

On to WCSR, for which the “one-hybrid fitness for binding NBS DNA” value is ≤ 0.2.

In the case of AYGD, the “one-hybrid fitness for binding NBS DNA” value is ≤ 0.2.

As to TESN, the “one-hybrid fitness for binding NBS DNA” value was ≤ 0.2.

As for TRNC, the “one-hybrid fitness for binding NBS DNA” value is ≤ 0.2.

As to DGRA, the “one-hybrid fitness for binding NBS DNA” value was ≤ 0.2.

MMFL: the “one-hybrid fitness for binding NBS DNA” value is ≤ 0.2.

As for LKLW, the “one-hybrid fitness for binding NBS DNA” value is ≤ 0.2.

On to SAHF, for which the “one-hybrid fitness for binding NBS DNA” value is ≤ 0.2.

With VVMG, the “one-hybrid fitness for binding NBS DNA” value was ≤ 0.2.

As to PMTP, the “one-hybrid fitness for binding NBS DNA” value was ≤ 0.2.

Take CKTY: the “one-hybrid fitness for binding NBS DNA” value is ≤ 0.2.

Turning to WRWR, the “one-hybrid fitness for binding NBS DNA” value is ≤ 0.2.

For the variant IHDT, the “one-hybrid fitness for binding NBS DNA” value was ≤ 0.2.

On to PFTE, for which the “one-hybrid fitness for binding NBS DNA” value was ≤ 0.2.

For THAF, the “one-hybrid fitness for binding NBS DNA” value was ≤ 0.2.

Turning to RAIG, the “one-hybrid fitness for binding NBS DNA” value is ≤ 0.2.

Regarding CPPE, the “one-hybrid fitness for binding NBS DNA” value is ≤ 0.2.

Take WLLT: the “one-hybrid fitness for binding NBS DNA” value was ≤ 0.2.

For STLL, the “one-hybrid fitness for binding NBS DNA” value was ≤ 0.2.

Regarding LIRK, the “one-hybrid fitness for binding NBS DNA” value was ≤ 0.2.

As to MGKF, the “one-hybrid fitness for binding NBS DNA” value is ≤ 0.2.

As for SWRH, the “one-hybrid fitness for binding NBS DNA” value is ≤ 0.2.

In the case of PFQV, the “one-hybrid fitness for binding NBS DNA” value is ≤ 0.2.

As to PPAV, the “one-hybrid fitness for binding NBS DNA” value was ≤ 0.2.

As for PLDV, the “one-hybrid fitness for binding NBS DNA” value is ≤ 0.2.

In the case of GAFR, the “one-hybrid fitness for binding NBS DNA” value was ≤ 0.2.

Turning to PCYW, the “one-hybrid fitness for binding NBS DNA” value was ≤ 0.2.

In the case of RGVA, the “one-hybrid fitness for binding NBS DNA” value is ≤ 0.2.

In the case of RTIH, the “one-hybrid fitness for binding NBS DNA” value is ≤ 0.2.

Take TWHS: the “one-hybrid fitness for binding NBS DNA” value was ≤ 0.2.

With LPRI, the “one-hybrid fitness for binding NBS DNA” value is ≤ 0.2.

Consider HFAF, for which the “one-hybrid fitness for binding NBS DNA” value is ≤ 0.2.

Consider YKLA, for which the “one-hybrid fitness for binding NBS DNA” value is ≤ 0.2.

LCCM: the “one-hybrid fitness for binding NBS DNA” value was ≤ 0.2.

RYTR: the “one-hybrid fitness for binding NBS DNA” value came to 0.469.

As to EHSR, the “one-hybrid fitness for binding NBS DNA” value was ≤ 0.2.

As to HGQG, the “one-hybrid fitness for binding NBS DNA” value is ≤ 0.2.

Turning to HRRF, the “one-hybrid fitness for binding NBS DNA” value was ≤ 0.2.
